According to PubChem BioAssay (NCATS):
The inconclusive results got no clear call from the source; some entries with a clear call stand among them for comparison. For part of these data: No potency is given beside an inconclusive call; the fits are too rough. Activity calls are given as the source filed them. Calls follow the shape of the dose curve; as a rule, active = well fitted curve in the direction sought with a large enough effect; inconclusive = small, poorly fitted or top-dose-only effect, or another doubt; inactive = no such curve, though single readings can be large; an effect the other way counts as inactive or inconclusive.

Experiments:
[1] = qHTS for Inhibitors of Plasmodium falciparum (7G8) proliferation (AID 504316); also: nearly all actives have a fitted effect of over 65% in size; also: potency is read from the fitted curve at half-maximal effect; details: P. falciparum 7G8 in erythrocytes, SYBR Green DNA, 72 h; activity change, negative = inhibition: at 6.7 µM (top of the series)
How it was run: (§1)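 Erythrocytes infected with P. falciparum line (0.3% parasitemia, 2.5% hematocrit final) incubated with compounds 72 h at 37 °C, 5% CO2; SYBR Green lysis buffer added, fluorescence read next day. Normalized to 0.29 uM artemisinin and DMSO.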

[2] = qHTS for Inhibitors of Plasmodium falciparum (HB3) proliferation (AID 504318); also: nearly all actives have a fitted effect of over 60% in size; also: potency is read from the fitted curve at half-maximal effect; details: P. falciparum HB3 in erythrocytes, SYBR Green DNA, 72 h; activity change, negative = inhibition: at 7.21 µM (top of the series)
How it was run: as §1

[3] = qHTS for Inhibitors of Plasmodium falciparum (CP250) proliferation (AID 504320); details: P. falciparum CP250 in erythrocytes, SYBR Green DNA, 72 h; series mostly up to 6.7 µM
How it was run: as §1
Tags tell the direction and shape of the fitted curve.

Compound	Potency [1]	Potency [2]	Potency [3]
COC(=O)C1=C(C)N(Cc2ccccc2)C(=S)NC1CCc1ccccc1 (stereo not given)	inactive	inconclusive [inhibitor, partial curve, poor fit]	
C[C@@H]1CC[C@H]2C(=O)N(Cc3cccc([N+](=O)[O-])c3)C[C@@H](O)CN2[C@@H]1c1ccc(Br)cc1	inconclusive [inhibitor, partial curve]	inconclusive [inhibitor, partial curve, poor fit]	
COC(=O)[C@H]1[C@@H](c2ccccc2)NC(=O)N(CCc2cc(OC)c(OC)c(OC)c2)[C@@H]1C	inconclusive [inhibitor, partial curve]	inconclusive [inhibitor, partial curve]	
CCOC(=O)CN1C(=O)N[C@@H](c2cccc(C(F)(F)F)c2)[C@H](C(C)=O)[C@H]1C	inactive	inactive	
COC1=C[C@H](C(=O)N2CCCC2)[C@H](C)[C@@H](c2ccccc2)CC1=O	inconclusive [inhibitor, partial curve, poor fit]	inconclusive [inhibitor, partial curve]	inactive
C[C@H]1C=CCC(=O)NCc2cccc(c2)CNC(=O)N[C@@H]1c1ccccc1	inconclusive [inhibitor, partial curve]	inconclusive [inhibitor, single point]	
CC[C@H](C)[C@@H](NC(=O)O[C@H]1C(=O)c2cc(OC)ccc2O[C@@H]1c1ccc(OC)c(Br)c1)C(=O)OC	inactive	inactive	
CC(=O)OC[C@H]1O[C@H](CCON=C(C)CCN2CCCc3nc(C)c(C)cc32)C=C[C@H]1OC(C)=O	inconclusive [inhibitor, single point]	inconclusive [inhibitor, single point]	
C#CCN1C(=O)CC[C@@]23C1=NC(C(=O)OC)=C(C(=O)OC)[C@@H]2N(C)c1ccccc13	inactive	inactive	inactive
COc1ccc2c(c1)O[C@@H](c1ccc3c(c1)OCO3)[C@H](OC(=O)Nc1ccc(C)c(Br)c1)C2=O	inconclusive [inhibitor, single point]	inconclusive [inhibitor, partial curve]	
COC(=O)N[C@@H](c1ccco1)[C@]1(C(=O)OC)CCCC1=O	inactive	inactive	inactive
CC(CCN1CCCc2nc(C)c(C)cc21)=NOC[C@@H](O)[C@H]1O[C@@H]2OC(C)(C)O[C@H]2[C@@H]1O	inconclusive [inhibitor, single point]	inconclusive [inhibitor, single point]	
COC(=O)CCC(=O)OC1(C)C(=O)C2=COC(c3ccc(OC)cc3)=CC2=C(Br)C1=O (stereo not given)	inactive	inactive	inactive
COC(=O)CC=C[C@@H](C)[C@@H](C=NO[C@H](C)CN1CCCc2nc(C)c(C)cc21)N[S+](=O)([O-])c1ccc(C)cc1	inconclusive [inhibitor, single point]	inactive	
CC(C)=CCCC(C)=CCON=C1C[C@@H](O)[C@@H](O)[C@@H]2[C@H]3C(=O)N(c4ccc(F)cc4F)C(=O)[C@@H]3CC[C@H]12	inconclusive [inhibitor, single point]	inactive	
CCOC(=O)CN1C(=O)N[C@@H](c2ccc(Br)cc2)C(C(=O)OC)=C1C	inactive	inactive	
CCN1C(=NCCc2cccnc2)NC(c2ccccc2)C(C(=O)OC)=C1C (stereo not given)	inactive	inactive	
C=CCOC(=O)N[C@H](c1ccc(-c2ccccc2)cc1)[C@H](C)C=CCC(=O)OC	inconclusive [inhibitor, partial curve, poor fit]	inconclusive [activator, full curve, poor fit]	
COC/C=C/C1=CC2=CC(=O)C(C)(OC(=O)c3cnc4ccccc4n3)C(=O)C2=CN1CC(C)C (stereo not given)	inactive	inactive	
C=CCN1c2ccccc2[C@]23C[C@@H](C(=O)OC)N(S(=O)(=O)c4cccs4)C2=NC(C(=O)OC)=C(C(=O)OC)[C@H]13	inconclusive [inhibitor, partial curve, poor fit]	inactive	inactive
